The values that follow come from PubChem BioAssay AID1745853 (National Center for Advancing Translational Sciences (NCATS), 2022).

Holding throughout (test): Primary Screen for Target Class Profiling of Small Molecule Inhibitors of Methyltransferases
For experiment [1], the target named is Glycine N-methyltransferase (Homo sapiens) (UniProt Q14749). The conditions noted are these: purified enzyme, MTase-Glo SAH luminescence; measured here: GNMT inhibition; at 40 µM; stronger effect = lower value. From the text: (§1) PI: Matthew D. Hall Ph.D. and Quinlin M. Hanson Ph.D.
(§2) National Center for Advancing Translational Sciences (NCATS)
(§3) National Institute of Health (NIH), Rockville, MD
(§4) Target class profiling (TCP) is a chemical biology approach amenable to investigating understudied biological targets. TCP is achieved by developing a generalizable assay platform and applying it to screen a curated set of compound libraries against representative members of a target class. Small molecule methyltransferases (SMMTase) are a subclass of methyltransferase that act on metabolites to modulate signaling pathways, metabolize xenobiotics, or balance the available methyl pool. We screened four curated libraries totaling 27,574 unique compounds against the SMMTases nicotinamide N-methyltransferase (NNMT), phenylethanolamine N-methyltransferase (PNMT), histamine N-methyltransferase (HNMT), glycine N-methyltransferase (GNMT), catechol O-methyltransferase (COMT), and guanidinoacetate N-methyltransferase (GAMT). The data generated by this TCP can be leveraged for informed tool molecule development. For example, in the associated publication we identified a chemotype of HNMT-selective inhibitors. Additionally, we identified a putative SMMTase-selective inhibitor with potential as a tool molecule for studying broader methyltransferase biology.
(§5) High-through put screening assays were developed at the National Center for Advancing Translational Science (NCATS) for the enzymes NNMT, PNMT, HNMT, GNMT, COMT, and GAMT. Enzymatic activity was measured as a function of SAM cofactor conversion using the MTase Glo kit (Promega) for all enzymes. All assays were performed in 1536-well format with substrates and SAM concentrations at KM values. Enzyme concentration and assay timing were optimized for 10-20% SAM conversion. Initial screening of 27,574 compounds was done as single-point assays using the highest compound concentration (40 uM). […] These compounds were replated in 11-point dose response and assayed against NNMT, PNMT, HNMT, GNMT, COMT, GAMT, and a counter-assay. The IC50 and efficacy (maximal response) values were determined for each dose-response curve. These values are also accounted for in the area under the curve (AUC) values.
(§6) PROTOCOL TABLE (as described by Inglese J, Shamu CE and Guy RK. 2007)
(§7) SEQUENCE No. (e.g., 1, 2, 3, etc.); […] (e.g., Cells, Incubation, Reagent, etc.); VALUE; DESCRIPTION.
(§8) 1; Reagent; 2 uL; SMMTase Enzyme (2x) in reaction buffer, columns 1- 48.
(§9) 2; Reagent; 1 uL; SAM (4x) in reaction buffer, columns 1-48.
(§10) 3; Controls; 23 nL; DMSO in column 4; sinefungin in DMSO (0 uM - 40 uM) in 7-point 1:2 dilution series (n = 2) in column 2.
(§11) 4; Compounds; 23 nL; Columns 5-48.
(§12) 5; Reagent; 1 uL; Substrate (4x) in reaction buffer, columns 2-48.
(§13) 6; Time; 20-30 min; Incubation.
(§14) 7; Reagent; 1 uL; MTase-Glo reagent (5X), columns 1-48.
(§15) 8; Time; 30 min; Incubation.
(§16) 9; Reagent; 5 uL; MTase-Glo Detection reagent, columns 1-48.
(§17) 10; Time; 30 min; Incubation, luminescence evolution.
(§18) 11; Detection; Luminescence; ViewLux uHTS Microplate Imager (PerkinElmer).
(§19) NOTES (numbers refer to Sequence numbers above)
(§20) 1, 2, 5. White Medium Binding Greiner 1536-well plates (Cat #789175-F, Greiner Bio-One, Monroe, NC); Reaction buffer: 50 mM Tris, pH 8.0, 3 mM MgCl2, 1 mM EDTA, 50 mM NaCl, 1 mM DTT, and 0.1 mg/mL BSA. Evaporation was prevented by covering assay plates with metal lids containing holes to allow gas diffusion.
(§21) 1. Six SMMTase were profiled: HNMT, GNMT, PNMT, COMT, NNMT, GAMT
(§22) 5. The corresponding substrate was used for each enzyme: HNMT - 5.3 uM Histamine; GNMT - >500 uM Glycine; PNMT - 16.2 uM Norephinephrine; COMT - 13.7 uM Norephinephrine; NNMT - 3.8 uM Nicotinamide; GAMT - 2.5 uM Guanidinoacetate.6, 8, 10. Room temperature
(§23) 6. Final reaction conditions: 10 nM COMT, 5 uM SAM, 15 uM norepinephrine, 50 mM Tris, pH 8.0, 3 mM MgCl2, 1 mM EDTA, 50 mM NaCl, 1 mM DTT, and 0.1 mg/mL BSA; refer to tables 2 and S1 for specific timing.
8. […]

The target of experiment [2] is Guanidinoacetate N-methyltransferase (Homo sapiens) (UniProt Q14353). The following applies: purified enzyme, MTase-Glo SAH luminescence; measured here: GAMT inhibition; at 40 µM; stronger effect = lower value.
Excerpt: as §1, §2, §3, §4, §5, §6, §7, §8, §9, §10, §11, §12, §13, §14, §15, §16, §17, §18, §19, §20, §21, §22, §23
8. […]

For experiment [3], the target named is Histamine N-methyltransferase (Homo sapiens) (UniProt P50135). The following applies: purified enzyme, MTase-Glo SAH luminescence; measured here: HNMT inhibition; at 40 µM; stronger effect = lower value.
Excerpt: as §1, §2, §3, §4, §5, §6, §7, §8, §9, §10, §11, §12, §13, §14, §15, §16, §17, §18, §19, §20, §21, §22, §23
8. […]

For experiment [4], the target named is Nicotinamide N-methyltransferase (Homo sapiens) (UniProt P40261). The conditions noted are these: purified enzyme, MTase-Glo SAH luminescence; measured here: NNMT inhibition; at 40 µM; stronger effect = lower value.
Excerpt: as §1, §2, §3, §4, §5, §6, §7, §8, §9, §10, §11, §12, §13, §14, §15, §16, §17, §18, §19, §20, §21, §22, §23
8. […]

Experiment [5] deals with Phenylethanolamine N-methyltransferase (Homo sapiens) (UniProt P11086). The following applies: purified enzyme, MTase-Glo SAH luminescence; measured here: PNMT inhibition; at 40 µM; stronger effect = lower value.
Excerpt: as §1, §2, §3, §4, §5, §6, §7, §8, §9, §10, §11, §12, §13, §14, §15, §16, §17, §18, §19, §20, §21, §22, §23
8. […]

The other results are listed elsewhere or left out. Further columns of the screen follow, without active or inactive calls.
% is set by controls: 0 for no effect and ±100 for the full control effect.

On to `COC(=O)c1cc2n(n1)CC(C)(C(=O)NC1CCCCCC1)N(c1cccc(C)c1C)C2=O` (stereo not drawn), for which the activity change, negative = inhibition in experiment [1] is -2.24%; in experiment [2], -0.566%; in experiment [3], 3.08%; in experiment [4], -4.19%; in experiment [5], -3.99%.

As for `Cc1ccccc1CN1C(=O)c2nc3ccccc3n2CC1(C)C(=O)NC1CCCCC1` (stereo not drawn), the activity change, negative = inhibition in experiment [1] was 3.62%; in experiment [2] it was 1.74%; in experiment [3], 4.64%; in experiment [4], 2.84%; in experiment [5] it was -1.77%.

For `Cc1cccc(C)c1OCC(C)N` (stereo not drawn), the activity change, negative = inhibition in experiment [1] is -1.93%; in experiment [2] it was 3.1%; in experiment [3] it was 1.35%; in experiment [4], -6.37%; in experiment [5] it was -9.4%.

Take `CCCn1c(=O)c2ccc(C(=O)NCC(C)C)cc2n2c(=O)n(Cc3cc(C)ccc3C)nc12`: the activity change, negative = inhibition in experiment [1] was 3.86%; in experiment [2], 3.75%; in experiment [3], 4.1%; in experiment [4] it was -2.8%; in experiment [5] it was -0.997%.

For the molecule `Cc1cccc(NC(=O)CSc2nnc3n(Cc4ccc(F)cc4)c(=O)c4ccccc4n23)c1`, the activity change, negative = inhibition in experiment [1] is 2.89%; in experiment [2] it was 4.75%; in experiment [3], 9.35%; in experiment [4] it was -0.999%; in experiment [5], 2.25%.

For `CCN1C(=O)c2cc(C(=O)Nc3cccc(Cl)c3)nn2CC1(C)C(=O)NC1CCCC1` (stereo not drawn), the activity change, negative = inhibition was -1.2% in experiment [1]; -0.253% in experiment [2]; -2.11% in experiment [3]; -5.65% in experiment [4]; -2.96% in experiment [5].

Regarding `CC(=O)O[C@@H]1C[C@@]23C[C@@]24CC[C@H](OC2OC[C@@H](O)[C@H](O)[C@H]2O)C(C)(C)[C@@H]4CC[C@H]3[C@]2(C)CC3OC4(C[C@@H](C)C3[C@@]12C)OCC1(C)OC14` (stereo partly drawn), the activity change, negative = inhibition in experiment [1] was 4.42%; in experiment [2], 3.54%; in experiment [3] it was 8.37%; in experiment [4], -9.36%; in experiment [5] it was -1.65%.

For the molecule `CCN(CC)CCCNC(=O)CCc1nnc2n(CCc3ccccc3)c(=O)c3ccccc3n12`, the activity change, negative = inhibition is -3.65% in experiment [1]; 0.238% in experiment [2]; -44.5% in experiment [3]; 11.4% in experiment [4]; 2.52% in experiment [5].

`COc1cccc(CN2C(=O)c3c(-n4cccc4)c4ccccc4n3CC2(C)C(=O)NC2CCCC2)c1` (stereo not drawn): the activity change, negative = inhibition was -1.45% in experiment [1]; 8.34% in experiment [2]; -2.95% in experiment [3]; -3.95% in experiment [4]; 0.727% in experiment [5].

As to `C=C1C(=O)OC2CC(C)=C(C(C)CCCOC(C)=O)C(OC(=O)CC(C)CC)C12` (stereo not drawn), the activity change, negative = inhibition in experiment [1] is 0.406%; in experiment [2], 12.1%; in experiment [3], 7.55%; in experiment [4], -7.14%; in experiment [5], 4.64%.

With `COCC1CN(C(C)=O)CC12CCN(C(=O)C1CC=CC1)CC2` (stereo not drawn), the activity change, negative = inhibition was -8.77% in experiment [1]; -7.99% in experiment [2]; -3.98% in experiment [3]; -11.8% in experiment [4]; -5.96% in experiment [5].

Consider `CC(C)(C)c1cc2n(n1)CC(C)(C(=O)NC1CCCCC1)N(Cc1cccc(Cl)c1)C2=O` (stereo not drawn), for which the activity change, negative = inhibition was -5.56% in experiment [1]; -4.39% in experiment [2]; 2.68% in experiment [3]; -11.1% in experiment [4]; -2.5% in experiment [5].

For `N#Cc1cccc(CN2CCC(N(Cc3cccnc3)C(=O)Nc3ccccc3-c3ccccc3)CC2)c1`, the activity change, negative = inhibition in experiment [2] is 6.41%; in experiment [4], -18.3%; in experiment [5], -11.6%.

As to `Cc1nc(C)c(C(=O)N2CCC(N3C(=O)C4(CCCC4)C3c3scnc3C)CC2)s1` (stereo not drawn), the activity change, negative = inhibition was -5.58% in experiment [1]; -6.6% in experiment [2]; -2.39% in experiment [3]; -9.65% in experiment [4]; -2.67% in experiment [5].

`CC1=C2C(=O)C=C(CO)C2C2OC(=O)C(CS(=O)(=O)O)C2C(OC(=O)Cc2ccc(O)cc2)C1` (stereo not drawn): the activity change, negative = inhibition was -4.72% in experiment [1]; 0.607% in experiment [2]; 11.2% in experiment [3]; -11.5% in experiment [4]; -6.93% in experiment [5].

In the case of `CCC(C)NC(=O)c1ccc2c(=O)n(C(C)C)c3nn(Cc4ccc(Cl)cc4)c(=O)n3c2c1` (stereo not drawn), the activity change, negative = inhibition was -3.52% in experiment [1]; 0% in experiment [2]; 1.81% in experiment [3]; -3.07% in experiment [4]; 1.77% in experiment [5].

Take `COC(=O)N1CCC(n2ncc3c(N4CCOCC4)nc(-c4ccc(NC(=O)Nc5ccc(CO)cc5)cc4)nc32)CC1`: the activity change, negative = inhibition in experiment [1] is -6.04%; in experiment [2] it was 7.56%; in experiment [3], 5.77%; in experiment [4] it was -10.5%; in experiment [5], 3.67%.

For the molecule `CN[C@@H](C)C(=O)N[C@H]1CN(C(=O)CC(C)C)CC[C@H]2CC[C@@H](C(=O)NC(c3ccccc3)c3ccccc3)N2C1=O`, the activity change, negative = inhibition is -5.54% in experiment [1]; -4.99% in experiment [2]; -0.293% in experiment [3]; -18.5% in experiment [4]; -1.6% in experiment [5].
